This note sets out measurements from publication PMC4336329 (PLoS ONE, 2015).

Each structure is given as a SMILES string. Hit rate of the full screen: of about 310,000 compounds, about 14,000 (4.5%) showed an effect of 50% or more. The effect is printed as a negative number. The list shows a part of the results.
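Also: peak tail current of the secondary pulse compared with the same well before compound.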

Sequence of human ether-à-go-go-related gene (hERG) potassium channel (Q12809 whole entry, looked up): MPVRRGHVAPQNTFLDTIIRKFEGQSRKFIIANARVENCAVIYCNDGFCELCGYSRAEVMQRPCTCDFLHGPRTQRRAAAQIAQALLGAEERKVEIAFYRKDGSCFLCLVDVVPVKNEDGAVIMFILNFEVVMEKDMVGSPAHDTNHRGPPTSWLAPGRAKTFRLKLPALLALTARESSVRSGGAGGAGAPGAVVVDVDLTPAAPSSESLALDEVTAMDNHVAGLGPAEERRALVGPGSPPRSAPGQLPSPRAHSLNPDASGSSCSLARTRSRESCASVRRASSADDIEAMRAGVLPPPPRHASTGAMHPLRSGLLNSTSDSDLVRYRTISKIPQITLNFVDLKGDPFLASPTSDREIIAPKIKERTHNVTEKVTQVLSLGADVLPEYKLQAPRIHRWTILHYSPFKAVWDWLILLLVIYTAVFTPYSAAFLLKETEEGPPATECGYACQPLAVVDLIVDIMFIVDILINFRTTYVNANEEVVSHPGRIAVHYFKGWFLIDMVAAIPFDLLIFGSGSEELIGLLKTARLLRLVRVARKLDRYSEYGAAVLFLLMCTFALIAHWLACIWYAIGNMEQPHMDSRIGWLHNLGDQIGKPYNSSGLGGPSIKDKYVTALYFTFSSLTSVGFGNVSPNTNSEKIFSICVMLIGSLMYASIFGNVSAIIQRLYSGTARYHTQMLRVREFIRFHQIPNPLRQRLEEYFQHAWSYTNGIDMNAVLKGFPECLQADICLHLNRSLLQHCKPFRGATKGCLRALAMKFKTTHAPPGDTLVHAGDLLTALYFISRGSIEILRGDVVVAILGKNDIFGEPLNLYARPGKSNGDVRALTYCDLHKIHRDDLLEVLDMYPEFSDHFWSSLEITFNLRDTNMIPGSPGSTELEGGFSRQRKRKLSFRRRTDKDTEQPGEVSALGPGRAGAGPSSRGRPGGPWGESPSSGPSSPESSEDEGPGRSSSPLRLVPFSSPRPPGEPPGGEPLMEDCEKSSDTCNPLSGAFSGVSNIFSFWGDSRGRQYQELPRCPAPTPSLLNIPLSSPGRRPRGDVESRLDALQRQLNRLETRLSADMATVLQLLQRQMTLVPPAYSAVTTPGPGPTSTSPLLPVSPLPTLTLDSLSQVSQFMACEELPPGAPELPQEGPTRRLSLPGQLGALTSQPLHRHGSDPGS

The assay addresses human ether-à-go-go-related gene (hERG) potassium channel (human, UniProt Q12809). Kind of assay: primary screen, population patch clamp on CHO cells stably expressing hERG.
Take `COc1ccccc1N1CCc2c(C)nc3c(OC)cccc3c21`: the “hERG current change (%, negative = inhibition) at 10uM” value was -61%.
With `Cc1cc(C)cc(NS(=O)(=O)c2cc3[nH]c(=O)c(=O)[nH]c3cc2C)c1` the figure was 6.15%; with `COc1ccc(C(=O)NCC(=O)OC2CCCCC2=O)cc1` (stereo not drawn), -13.5%.
As for `COc1ccc([N+](=O)[O-])cc1N(CC(=O)Nc1ccccc1C(=O)NC(C)C)S(C)(=O)=O`, the “hERG current change (%, negative = inhibition) at 10uM” value was determined as 20.9%.
Next, `COCCn1c(SCC(=O)c2c[nH]c3ccccc23)nnc1-c1ccncc1`: -13.3%; `COCCNC(=O)Cn1cnc2sc(C)c(S(=O)(=O)N3CCC(C)CC3)c2c1=O`: 8.9%; `COc1ccc(NC(=O)N2CCCCCC2)cc1OC`: 12.7%.
`Cc1ccc(/C(N)=N/OC(=O)c2ccc3c(c2)OCO3)cc1`: the “hERG current change (%, negative = inhibition) at 10uM” value was -7.81%.
With `Clc1ccc(-c2nnc(N3CCCC3)nn2)cc1` the figure was 10.8%; with `Cc1nnc(SCC(=O)NC2CCCCC2)n(N)c1=O`, -3.9%.
With `CN1CCN(C2=NC3(CCCC3)C(C#N)C(=O)N2)CC1` (stereo not drawn) the figure was 6.7%.
`CO/N=C(/CS(=O)c1ccc(Br)cc1)c1ccc(OC)cc1` (stereo not drawn): the “hERG current change (%, negative = inhibition) at 10uM” value is -24.1%.
Next, `O=C(Nn1c(=O)[nH]c2ccccc2c1=O)c1ccco1`: -3.87%; `COc1cccc(OC)c1C(=O)Nc1nc(N)n(-c2ccccc2)n1`: 1.74%.
Consider `Cc1cccc(NC(=O)Nc2ccc(Cl)cc2)n1`, for which the “hERG current change (%, negative = inhibition) at 10uM” value turned out to be 15.3%.
With `O=C(CSc1nc2sc3c(c2c(=O)[nH]1)CCC3)NCCO`, the “hERG current change (%, negative = inhibition) at 10uM” value is recorded as 3.33%.
For `COc1ccc2c(c1)c(-c1csc(N)n1)c(C)n2C`, the “hERG current change (%, negative = inhibition) at 10uM” value came out at 5.5%.
In the case of `COC(=O)CC1COc2ccccc2N1C(=O)c1ccc(Cl)cc1` (stereo not drawn), the “hERG current change (%, negative = inhibition) at 10uM” value is given as -13.9%.
Consider `CC(C)C[C@H](NC(=O)c1ccc(OC2CCN(C(=O)C3CC3)CC2)cc1)C(N)=O`, for which the “hERG current change (%, negative = inhibition) at 10uM” value turned out to be 0.679%.
With `CCCC(C(=O)NC1CCCC1)N(CCN(CC)CC)C(=O)c1snc(C(N)=O)c1N` (stereo not drawn) the figure was -1.12%.
Turning to `CCCOc1ccc(C2c3c(oc4cc(C)c(C)cc4c3=O)C(=O)N2CCCN(C)C)cc1OCC` (stereo not drawn), the “hERG current change (%, negative = inhibition) at 10uM” value worked out at 7.65%.
On to `CC1CCC/C(=C\Nc2ccc(O)cc2)C1=O` (stereo not drawn), for which the “hERG current change (%, negative = inhibition) at 10uM” value is reported as -0.0111%.
For `COc1ccc(NC(=O)C/C(C)=N/NC(=O)C(=O)NC2CCCCC2)c(OC)c1`, the “hERG current change (%, negative = inhibition) at 10uM” value was -8.46%.
With `Cc1ccnc2nc(C(=O)OCC(=O)Nc3ccccc3C(C)(C)C)nn12` the figure was -1.85%; with `Cc1ccc(NC(=O)CSc2ccccc2NC(=O)c2ccccc2)cc1Cl`, 4.25%.
With `O=C(Nc1cccc(S(=O)(=O)N2CCOCC2)c1)C1CCCN(C(=O)c2ccc(Cl)cc2)C1` (stereo not drawn) the figure was -32.4%; with `O=C(NNc1ncnc2sccc12)c1ccc(Cl)cc1`, 23.1%.
Take `O=C(c1ccccc1OCc1ccc(Cl)cc1)N1CCN(c2ccccn2)CC1`: the “hERG current change (%, negative = inhibition) at 10uM” value is given as -42.4%.
Consider `CC1CN(c2cc3nccnc3cc2F)CC(C)O1` (stereo not drawn), for which the “hERG current change (%, negative = inhibition) at 10uM” value is -2.42%.
With `Cc1c(CN(C)C)c2c(n1Cc1ccccc1)C(=O)c1ccc(Br)cc1-2.Cl` the figure was -74.5%; with `COc1ccc(Nc2cc(NCCCO)c([N+](=O)[O-])c3nonc23)cc1`, 17.7%; with `CCn1c(=O)c2cc(C(=O)Nc3cc(C)on3)sc2c2ccccc21`, -13.6%.
Regarding `CCN(CC)S(=O)(=O)c1ccc(O)c(C(=O)OCC(=O)N(C)Cc2ccccc2)c1`, the “hERG current change (%, negative = inhibition) at 10uM” value is on record as -55.4%.
Next, `CCN1C(=O)/C(=C/C=C2/Sc3ccc4ccccc4c3N2CCO)SC1=S`: 10%; `COc1ccc(Br)cc1/C=N/NC(=O)CNC(=O)C1COc2ccccc2O1` (stereo not drawn): 2.06%.
Next, `NS(=O)(=O)c1ccc(NC(=O)/C=C/c2cn(-c3ccccc3)nc2-c2cccc(Cl)c2)cc1`: 44.1%; `O=C(Nc1ccc(OCC(F)(F)C(F)F)c(C(F)(F)F)c1)c1ccccc1O`: 9.65%; `Cc1cc2cc(CN(CCN3CCOCC3)C(=O)Nc3ccccc3F)c(=O)[nH]c2cc1C`: -24.5%.
As for `O=C(NCc1ccccc1)c1ccc(Cl)c(NC2=NC3CS(=O)(=O)CC3S2)c1` (stereo not drawn), the “hERG current change (%, negative = inhibition) at 10uM” value is given as -0.123%.
As to `Cc1cc(C)c2c(C)nn(C3CCCCC3)c2n1`, the “hERG current change (%, negative = inhibition) at 10uM” value worked out at 8.89%.
With `COc1cc(CN2CC(=O)N(c3ccccc3Cl)C2=S)cc(OC)c1OC` the figure was 17.7%; with `O=S(=O)(NCc1ccccc1)c1ccc(F)cc1Br`, -12.3%.
`CC1CC(C)(C)CC(=O)C1C(=O)c1ccccc1` (stereo not drawn): the “hERG current change (%, negative = inhibition) at 10uM” value turned out to be 16.4%.
Consider `CS/C(=N\S(=O)(=O)c1cccs1)Nc1ccc(Cl)cc1`, for which the “hERG current change (%, negative = inhibition) at 10uM” value is -13.8%.
Next, `O=C(Nc1ccc(F)cc1)Nc1ccc(S(=O)(=O)N2CCCC2)cc1`: 6.23%; `Cc1cccc(C)c1NC(=O)COC(=O)CCc1ccc(S(=O)(=O)N2CCCCC2)cc1`: -1.8%; `Cc1cccc(NC(=O)NC2CCCCCCC2)c1`: 2.16%.
Next, `Cc1nn(-c2ccccc2)c(N2CCCC2)c1/C=N/O`: -11.4%.
Next, `COCCCNC(=O)c1ccccc1C(F)(F)F`: 2.69%; `COc1ccccc1COCC(O)CNCC1(N2CCCCC2)CCCCC1.O=C(O)C(=O)O` (stereo not drawn): -30.9%.
Consider `O=C(CCNC(=O)N1CCn2c1nc1ccccc12)NCc1ccc(Cl)cc1`, for which the “hERG current change (%, negative = inhibition) at 10uM” value was -36.3%.
With `Cc1nonc1CC(=O)N1CCc2c([nH]c3ccccc23)C1c1ccccc1F` (stereo not drawn) the figure was 21.4%; with `O=C(NC1CC1)C1CCN(Cc2cnn(-c3ccccc3)c2-n2cccc2)CC1`, -23.5%.
Next, `COc1cccc(C(=O)Nc2cccc3c2ccc2cccn23)c1`: 25.2%; `CCOC(=O)c1cc2n(n1)C(C(F)(F)F)CC(C)N2` (stereo not drawn): 10.4%; `CCOC(=O)CSc1nc2sc(C)c(C)c2c(=O)n1N`: 14.6%.
`COC(=O)C1=C(C(=O)OC)[C@@H]2N(Cc3ccccc3)c3ccccc3[C@@]23C[C@@H](C(=O)OC)N(C(C)=O)C3=N1`: the “hERG current change (%, negative = inhibition) at 10uM” value was -0.809%.
